This is one part of the list.
Test system: HSkMC (human skeletal muscle cells)
Test: cytotoxicity call (relative viability < 0.9)
Settings: 10 µM

| SMILES | cytotoxicity call |
| --- | --- |
| C[C@@H]1CN([C@@H](C)CO)C(=O)Cc2cc(NC(=O)NC3CCCCC3)ccc2O[C@H]1CN(C)C(=O)Nc1ccc(C(F)(F)F)cc1 | inactive |
| COCC(=O)Nc1ccc2c(c1)C(=O)N(C)[C@H]1CC[C@H](CC(=O)N3CCc4ccccc4C3)O[C@@H]1CO2 | inactive |
| C[C@H]1CCCCO[C@@H](CN(C)Cc2ccccc2)[C@@H](C)CN([C@@H](C)CO)C(=O)c2cc(NC(=O)CCC(F)(F)F)ccc2O1 | inactive |
| C[C@H]1CCCCO[C@@H](CN(C)C(=O)Nc2ccccc2)[C@@H](C)CN([C@@H](C)CO)C(=O)c2cc(NC(=O)Nc3ccc(F)cc3)ccc2O1 | inactive |
| Cc1ccc(S(=O)(=O)Nc2ccc3c(c2)C(=O)N([C@@H](C)CO)C[C@H](C)[C@@H](CN(C)S(=O)(=O)c2cccs2)O3)cc1 | inactive |
| C[C@@H]1CCCCO[C@@H](CN(C)Cc2ccccc2)[C@H](C)CN([C@@H](C)CO)C(=O)c2cc(NC(=O)Cc3ccccc3)ccc2O1 | inactive |
| COC[C@@H]1CNN1C(=O)OC(C)(C)C | inactive |
| O=C(CCCCCNC(=O)OCc1ccc(CO[C@H]2C[C@@H](c3ccc(C(F)(F)F)cc3)C=C(C(=O)N3CCN(Cc4ccc5c(c4)OCO5)CC3)O2)cc1)NO | inactive |
| C[C@H]1CN([C@@H](C)CO)C(=O)Cc2cc(NC(=O)Cn3cnnn3)ccc2O[C@H]1CN(C)C(=O)Nc1cccc2ccccc12 | inactive |
| COC(=O)[C@@H](NC(=O)Cn1cc(CCC(=O)NO)nn1)c1ccccc1 | inactive |
| COc1ccc(C#Cc2ccc3c(c2)O[C@@H](CN(C)S(=O)(=O)c2ccccc2F)[C@@H](C)CN([C@@H](C)CO)S3(=O)=O)cc1 | inactive |
| CCNC(=O)C[C@@H]1C=C[C@H](NC(=O)C2CCOCC2)[C@H](CO)O1 | inactive |
| COc1ccccc1NC(=O)N(C)C[C@H]1Oc2ncc(Br)cc2C(=O)N([C@H](C)CO)C[C@@H]1C | inactive |
| C[C@@H]1CN([C@@H](C)CO)C(=O)c2cc(NS(=O)(=O)c3cn(C)cn3)ccc2O[C@@H]1CN(C)Cc1ccncc1 | inactive |
| CC(C)Oc1ccc2c(=O)c(-c3ccccc3)coc2c1 | inactive |
| NC(=O)N1CCC(CC(=O)N2CCC([C@H]3c4ncc(Br)cc4CCc4cc(Cl)cc(Br)c43)CC2)CC1 | inactive |
| CCNc1nc(SCC(N)=O)nc(N2CCOCC2)n1 | inactive |
| CN1CCN(C(=O)C[C@H]2CC[C@@H]3[C@H](COc4ccc(NC(=O)C5CCCCC5)cc4C(=O)N3C)O2)CC1 | inactive |
| O=C(C[C@H]1CC[C@@H]2[C@H](COC[C@H](O)CN2S(=O)(=O)c2cccc(Cl)c2)O1)N1CCOCC1 | inactive |
| C[C@@H]1CN([C@H](C)CO)C(=O)c2cc(NC(=O)Cn3cnnn3)ccc2O[C@@H]1CN(C)Cc1ccc(C(F)(F)F)cc1 | inactive |

| SMILES | cytotoxicity call |
| --- | --- |
| C[C@@H]1CN([C@@H](C)CO)C(=O)c2ccccc2-c2ccccc2CO[C@H]1CN(C)C(=O)N[C@H](C)c1ccccc1 | inactive |
| COc1ccc(F)c(C(=O)N2CCN(CCO)[C@@H]3CS(=O)(=O)C[C@@H]32)c1F | inactive |
| C[C@@H]1CN([C@H](C)CO)C(=O)c2cc(NC(=O)Cc3cn(C)c4ccccc34)ccc2O[C@@H]1CN(C)Cc1ccc(Oc2ccccc2)cc1 | inactive |
| C[C@H]1CN([C@@H](C)CO)C(=O)Cc2cc(NC(=O)Cn3cnnn3)ccc2O[C@@H]1CN(C)S(=O)(=O)c1ccc(Cl)cc1 | inactive |
| Cc1ccc(S(=O)(=O)N(C)C[C@H]2Oc3ncc(C#CCC(C)C)cc3C(=O)N([C@@H](C)CO)C[C@H]2C)cc1 | inactive |
| C[C@@H]1CN([C@H](C)CO)C(=O)CCCn2cc(nn2)CO[C@H]1CN(C)S(=O)(=O)c1cccc(C#N)c1 | inactive |
| COc1ccc(NC(=O)N(C)C[C@H]2Oc3ccc(NS(C)(=O)=O)cc3CC(=O)N([C@H](C)CO)C[C@@H]2C)cc1 | inactive |
| C[C@@H]1CN([C@@H](C)CO)C(=O)c2cc(NC(=O)CCCN(C)C)ccc2O[C@@H](C)CCCCO[C@@H]1CN(C)Cc1ccc(C(F)(F)F)cc1 | inactive |
| C[C@@H]1CN([C@@H](C)CO)C(=O)Cc2cc(NC(=O)Cn3cnnn3)ccc2O[C@@H]1CN(C)C(=O)Nc1ccc(C(F)(F)F)cc1 | inactive |
| C[C@@H]1CN([C@@H](C)CO)C(=O)Cc2cc(N(C)C)ccc2O[C@H]1CN(C)S(=O)(=O)c1cn(C)cn1 | inactive |
| CCCCC/C=C\C/C=C\C/C=C\C/C=C\CCCC(=O)O | inactive |
| Cc1ccc(S(=O)(=O)Nc2ccc3c(c2)C(=O)N([C@H](C)CO)C[C@@H](C)[C@@H](CN(C)C(=O)Nc2ccccc2)OCCCC[C@@H](C)O3)cc1 | inactive |
| Cc1ccc(S(=O)(=O)Nc2ccc3c(c2)CC(=O)N([C@@H](C)CO)C[C@@H](C)[C@@H](CN(C)S(=O)(=O)c2ccccc2)O3)cc1 | inactive |
| Cc1cc(C(=O)O)nn1C | inactive |
| C[C@H]1CN([C@@H](C)CO)C(=O)c2cc(NC(=O)Cn3cnnn3)ccc2O[C@@H]1CN(C)S(=O)(=O)c1cccs1 | inactive |
| C[C@@H]1CCCCO[C@H](CN(C)Cc2ccc(C(=O)O)cc2)[C@H](C)CN([C@H](C)CO)C(=O)c2cc(NC(=O)NC3CCCCC3)ccc2O1 | inactive |
| CCN1CCCC1CNC(=O)c1cc(S(N)(=O)=O)ccc1OC (stereo not given) | inactive |
| C[C@@H]1CCCCO[C@H](CN(C)CC2CC2)[C@H](C)CN([C@@H](C)CO)C(=O)c2cc(NC(=O)Nc3cccc4ccccc34)ccc2O1 | inactive |
| C[C@H](CO)N1C[C@H](C)[C@@H](CN(C)Cc2ccncc2)Oc2ccc(NC(=O)Nc3cccc4ccccc34)cc2C1=O | inactive |
| C[C@H](CO)N1C[C@H](C)[C@H](CN(C)C(=O)Nc2ccccc2)OCCCC[C@H](C)Oc2ccc(NC(=O)c3ccccc3)cc2C1=O | inactive |

Reference: the antibiotic and cytotoxicity screens of Wong et al. (2023)
